Measurements: ChEMBL document CHEMBL4888484, “Replenishing the malaria drug discovery pipeline: Screening and hit evaluation of the MMV Hit Generation Library 1 (HGL1) against asexual blood stage Plasmodium falciparum ,using a nano luciferase reporter read-out” (2022)
About 540 (0.36%) of roughly 150,000 compounds showed an effect of 50% or more. Some of the results follow.

These compounds were tested on Plasmodium falciparum (assay: Primary screen in NF54 nanoGlo assay, in single point, at 2uM, 72h; a lower Z score goes with more inhibition). Details: timepoint 72 hour.
Type: functional, Erythrocyte
For `COC[C@H](C)N(C)S(=O)(=O)c1ccc(C(=O)O)cc1`, the “% Inhibition” value was -7% and the Z score was 0.98. `CC(C)c1csc(CN2CCC(CCC(=O)N3CCc4ccccc4C3)CC2)n1` was tested, and the “% Inhibition” value was -8% and the Z score was 1.54. For `Cc1nnc(NS(=O)(=O)c2c(C)sc3ccccc23)s1`, the “% Inhibition” value was 32% and the Z score was -0.99. `Cc1ccc(N2C(=O)CN(S(=O)(=O)c3ccc(C)cc3)C[C@@]2(C)C(=O)NCCC(C)C)cc1` was tested, and the “% Inhibition” value was -5% and the Z score was 0.75. In the case of `COc1ccc(-c2noc([C@H](C)NC(=O)N3CCNC(=O)C3)n2)cc1OC`, the “% Inhibition” value is reported as 40% and the Z score is reported as -5.5. With `O=c1cc(Cc2ccccc2)[nH]c2c(-c3ccccc3)c(C(F)(F)F)nn12` the “% Inhibition” value was 30% and the Z score was -3.45. `CN1CCCN(c2nc(-c3ccccc3)nc3nc(-c4ccccc4)oc23)CC1` was tested, and the “% Inhibition” value was 7% and the Z score was -0.98. With `CCn1ncc2c1CCCC2NC(C)C(=O)N1CCCC1` (stereo not given) the “% Inhibition” value was -12% and the Z score was 2.25. `O=C(NC[C@H](NC(=O)C1=COCCC1)C1CCCCC1)C1=COCCC1` was tested, and the “% Inhibition” value was -2% and the Z score was 0.38. For `CCC[C@@H](C#N)N(C)S(=O)(=O)c1ccccc1C(C)(C)C`, the “% Inhibition” value was -3% and the Z score was 0.38. With `O=C(c1cccc(Br)c1)N1CC(=O)N2CCc3ccccc3[C@@H]2C1` the “% Inhibition” value was -2% and the Z score was 0.27. With `Cc1cccnc1N1CC[C@H](N2CCN(C)CC2)[C@H](CCC(=O)O)C1` the “% Inhibition” value was -8% and the Z score was 1.55. `O=C1C2CC=CCC2C(=O)N1c1ccccn1` (stereo not given) was tested, and the “% Inhibition” value was -9% and the Z score was 1.32. In the case of `c1csc(CN2CC[C@H](c3nc4ccccc4s3)C2)c1`, the “% Inhibition” value is reported as 6% and the Z score is reported as -0.85. With `O=c1nc(-c2ccccc2)on1Cc1cc(F)ccc1F` the “% Inhibition” value was -29% and the Z score was 3.41. For `CC1(CN2C(=O)[C@H]3CCCCN3C2=O)Cc2ccccc2C1`, the “% Inhibition” value was -2% and the Z score was 0.22. In the case of `CCc1noc(CN2c3ccccc3C[C@@H]2C)n1`, the “% Inhibition” value is reported as -1% and the Z score is reported as 0.09. `O=C1C[C@H](c2ccccc2F)c2sccc2N1` was tested, and the “% Inhibition” value was -9% and the Z score was 1.34. For `CNC(=O)[C@@H]1CN(C(=O)CCc2cc(OC)no2)C[C@H]1c1nc(C)no1`, the “% Inhibition” value was -9% and the Z score was 1.4. For `CC(=O)c1cccc(S(=O)(=O)N2CCN(C(=O)c3cc(C)nc4ccccc34)CC2)c1`, the “% Inhibition” value was -5% and the Z score was 0.58. For `CC(C)c1cc(N2CCCC(O)C2)nc(CN2CCCC(O)C2)n1` (stereo not given), the “% Inhibition” value was -8% and the Z score was 1.11. `OC[C@@H]1CCCN1Cc1nc(-c2ccccc2)no1` was tested, and the “% Inhibition” value was 8% and the Z score was -1.06. For `Cc1cc2c(=O)n(CC(=O)N(C)c3ccccc3)c3cccnc3n2n1`, the “% Inhibition” value was -21% and the Z score was 2.25. `CC(C)N(C)S(=O)(=O)C1CON(C)C1c1cccc(OCc2ccccc2)c1` (stereo not given) was tested, and the “% Inhibition” value was -8% and the Z score was 1.28. With `COc1cc2c(cc1OC)CN(C(=O)C[C@@H]1NC(=O)N(Cc3ccccc3Cl)C1=O)CC2` the “% Inhibition” value was -14% and the Z score was 1.96. For `CN(C)c1nc2cc(NC(=O)Cc3noc4ccccc34)ccc2o1`, the “% Inhibition” value was -15% and the Z score was 2.38. For `CCC[C@]1(CO)CCCN(CCn2ccnc2)C1`, the “% Inhibition” value was 11% and the Z score was -1.05. In the case of `COCc1nc(C)cc(N2CC3CC=CCC3C2)n1` (stereo not given), the “% Inhibition” value is reported as -20% and the Z score is reported as 2.69. For `FCCn1ncnc1CN1CCCCC[C@H]1C1CCCCC1`, the “% Inhibition” value was 48% and the Z score was -5.68. In the case of `CC1(NC(=O)[C@@H]2CC[C@H](C(=O)NC3(C)CCCOC3)C2)CCCOC1` (stereo not given in full), the “% Inhibition” value is reported as 4% and the Z score is reported as -0.83. For `C=CCn1c(C)c(CC(=O)Nc2ccccc2C)c(=O)n2nc(-c3ccc(C)cc3)nc12`, the “% Inhibition” value was -3% and the Z score was 0.5. For `CC(C)c1ocnc1C(=O)N[C@H]1CCc2nccn2C1`, the “% Inhibition” value was -2% and the Z score was 0.41. `C[C@@H](Cc1ccsc1)n1ccnc1-c1ccc(-n2ccnc2)cc1` was tested, and the “% Inhibition” value was -14% and the Z score was 2.62. With `Cc1nc(C(=O)N[C@H]2CC[C@H]2NC2CCCCCCC2)cs1` the “% Inhibition” value was 4% and the Z score was -0.48. For `CN(Cc1cccn1-c1ncccn1)C[C@H]1CCCCO1`, the “% Inhibition” value was -5% and the Z score was 1.07. `O=C(NCC1(NC(=O)C2CCCOCC2)CC1)C1CCCOCC1` (stereo not given) was tested, and the “% Inhibition” value was -6% and the Z score was 0.86. With `COC(=O)c1c(OCCO)nn(C)c1N` the “% Inhibition” value was -3% and the Z score was 0.47. With `COc1nscc1-c1noc(CCn2cccn2)n1` the “% Inhibition” value was -12% and the Z score was 1.64. `Nc1c(Cl)cc(Cl)c(N)c1Cl` was tested, and the “% Inhibition” value was 36% and the Z score was -5.25. For `Cc1cc(Cl)ccc1C(=O)NC(C)C(C)CO` (stereo not given), the “% Inhibition” value was -4% and the Z score was 0.57. For `CCOc1ccc(NC(=O)C2CCN(c3c(C(=O)N(CC)CC)cnc4snc(C)c34)CC2)cc1`, the “% Inhibition” value was 5% and the Z score was -0.93. `Cc1cc(O[C@H]2CCN(S(=O)(=O)c3cccs3)C2)nc(C)n1` was tested, and the “% Inhibition” value was -7% and the Z score was 1.1. `Cc1cnn(C2(C(=O)O)CCN(c3nc4ccccc4o3)CC2)c1` was tested, and the “% Inhibition” value was -2% and the Z score was 0.4. For `CN1CC[C@H](N(C)CCC(=O)NCc2cc(F)c(F)cc2F)C1`, the “% Inhibition” value was 4% and the Z score was -0.62. In the case of `CCCS(=O)(=O)N1CC(=O)N(c2ccc(C)c(Cl)c2)[C@](C)(C(=O)NC2CCCCCCC2)C1`, the “% Inhibition” value is reported as -16% and the Z score is reported as 1.97. In the case of `C[C@H]1CCCCN1CCN(C)S(=O)(=O)NCc1ccccc1`, the “% Inhibition” value is reported as -2% and the Z score is reported as 0.43. For `CNC(=O)c1nsc(C(=O)N2CCN(c3cc(Cl)ccc3C)CC2)c1N`, the “% Inhibition” value was -10% and the Z score was 1.21. For `CN(CCC#N)S(=O)(=O)NC1CC2CCC1(C)C2(C)C` (stereo not given), the “% Inhibition” value was -2% and the Z score was 0.32. `CCn1ncc(C(=O)N[C@H](c2cnc3ccccc3c2)C2CC(O)C2)c1C` (stereo not given in full) was tested, and the “% Inhibition” value was -10% and the Z score was 1.01. With `COc1ccc(C(=O)N(CCN2CCCC2)C2CCOCC2)cc1F` the “% Inhibition” value was -9% and the Z score was 1.39. With `CN(Cc1ccccc1)CC(C)(C)CNCc1cccnc1N1CCC(C(N)=O)CC1` the “% Inhibition” value was -3% and the Z score was 0.57. `C=CCC1(CC=C)CCCN1C(=O)[C@@H]1CCCCO1` was tested, and the “% Inhibition” value was -5% and the Z score was 1.05. In the case of `CCCc1ncncc1C(=O)N(C)CCn1nc(C)cc1C`, the “% Inhibition” value is reported as -7% and the Z score is reported as 1.42. With `CCOc1ccc(N2CCCCn3c2nc2c3c(=O)n(Cc3cccc(C)c3)c(=O)n2C)cc1` the “% Inhibition” value was -8% and the Z score was 0.93. For `CCC(=O)Nc1ccc2c(c1)c(=O)n(-c1ccccc1)n2CC(=O)Nc1ccccc1C`, the “% Inhibition” value was -9% and the Z score was 1.19.
